“And” between values parts separate entries of the source, which are not always exact repeats. Equal entries are not always repeated. This is one part of the list. These are further read-outs of the screen, such as a control signal, another cell line or another target. No call is given for them.

Experiment in all cases: Primary Screen for Target Class Profiling of Small Molecule Inhibitors of Methyltransferases
In assay [1] the target is Glycine N-methyltransferase (Homo sapiens) (UniProt Q14749). The note with it: purified enzyme, MTase-Glo SAH luminescence; measured here: GNMT inhibition; at 40 µM; stronger effect = lower value. The method, boiled down: (§1)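 Each enzyme was reacted with SAM and its substrate, with compounds tested once at 40 uM; SAH formed was read by MTase-Glo luminescence.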
The target of assay [2] is Guanidinoacetate N-methyltransferase (Homo sapiens) (UniProt Q14353). The note with it: purified enzyme, MTase-Glo SAH luminescence; measured here: GAMT inhibition; at 40 µM; stronger effect = lower value. A digest of the protocol: as §1
Assay [3] concerns the target Histamine N-methyltransferase (Homo sapiens) (UniProt P50135). The settings on record: purified enzyme, MTase-Glo SAH luminescence; measured here: HNMT inhibition; at 40 µM; stronger effect = lower value. The method, boiled down: as §1
Assay [4] deals with Nicotinamide N-methyltransferase (Homo sapiens) (UniProt P40261). The note with it: purified enzyme, MTase-Glo SAH luminescence; measured here: NNMT inhibition; at 40 µM; stronger effect = lower value. The method, boiled down: as §1
Assay [5] addresses Phenylethanolamine N-methyltransferase (Homo sapiens) (UniProt P11086). The settings on record: purified enzyme, MTase-Glo SAH luminescence; measured here: PNMT inhibition; at 40 µM; stronger effect = lower value. The method, boiled down:
as §1
On the % scale 0 is the no-effect control and ±100 the full control effect.

In the case of `CN1CCN(Cc2ccc(NC(=O)Cc3ccc(Oc4cc(NC(=O)C5CC5)ncn4)cc3)cc2C(F)(F)F)CC1`, the activity change, negative = inhibition in assay [1] is 0.844%; in assay [2], 9.31%; in assay [3], -50%; in assay [4] it was -25.8%; in assay [5], -8.14%.
For `CCN1C(=O)c2cc(C(=O)Nc3cccc(F)c3)nn2CC1(C)C(=O)NC1CCCC1` (stereo not given), the activity change, negative = inhibition in assay [1] was -6.61%; in assay [2], -4.12%; in assay [3], -12.3%; in assay [4], -3.09%; in assay [5] it was -7.24%.
The like results for `Cc1ccc(NS(=O)(=O)c2cc3[nH]c(=O)[nH]c3cc2C)cc1` were, in that order, -1.52%, 0%, 3.6%, 6.4% and -18.7%.
The like results for `CC(C)CN(CCN1C(=O)c2cc3occc3n2CC1(C)C(=O)NC1CCCCCC1)CC(C)C` (stereo not given) were, in that order, 2.32%, -3.63%, 4.44%, 4.6% and -0.198%.
In the same order, the values of `CC1CCCC2OC2C(=O)c2c(O)cc(O)cc2CC(=O)O1` (stereo not given) are -7.29%, 1.29%, -3.24%, -10.3% and 3.25%.
Take `O=C(CCc1nnc2n(Cc3ccccc3Cl)c(=O)c3ccccc3n12)Nc1ccc(F)cc1`: the activity change, negative = inhibition in assay [1] is -5.51%; in assay [2], -7.79%; in assay [3] it was -2.7%; in assay [4], -19.4%; in assay [5] it was -8.5%.
The like results for `Cc1cccc(C)c1NS(=O)(=O)c1ccc2[nH]c3c(c2c1)CCCC3` were, in that order, -8.18%, 0.646%, -1.58%, -11.9% and -0.361%.
In the same order, the values of `C=CCn1c(=O)c2ccc(C(=O)NC(C)CC)cc2n2c(=O)n(CC(=O)Nc3ccccc3C)nc12` (stereo not given) are 3.62%, 2.37%, 5.36%, -6.4% and -3.09%.
The like results for `N#CC1CCN(C(=O)C2CCN(C(=O)c3ccc(-c4cncnc4)cc3)CC2)CC1` were, in that order, -2.85%, 0.004%, 0.04%, -6.07% and -2.12%.
`COc1ccc2nc([C@H]3CCN(Cc4cccnc4)C3)[nH]c2c1`: the activity change, negative = inhibition is -7.38% in assay [1]; -4.3% in assay [2]; -27.8% in assay [3]; -23.1% in assay [4]; -3.27% in assay [5].
The like results for `COc1ccccc1CNC(=O)C1(C)Cn2nc(-c3ccccc3)cc2C(=O)N1CCC1=CCCCC1` (stereo not given) were, in that order, 1.72%, 3.97%, -0.437%, 3.72% and -1.67%.
For the compound `CNCCCC1c2ccccc2C=Cc2ccccc21`, the activity change, negative = inhibition was 6.6% in assay [1]; 12% in assay [2]; 2.59% in assay [3]; -12% in assay [4]; 0.344% in assay [5].
The like results for `COc1cc(O)cc(C)c1C(=O)O[C@@H]1[C@H](O)[C@@H](CO)O[C@H]1n1ccc(=O)[nH]c1=O` were, in that order, -1.37%, -5.39%, -8.13%, -18.3% and -3.04%.
The like results for `Cc1ccc(-c2nccc(N3CCC(O)C3)n2)c(C)c1` (stereo not given) were, in that order, -2.87%, -7.73%, -6.01%, -21.1% and -12.2%.
For `CCCn1c(=O)c2ccc(C(=O)NCC(C)C)cc2n2c(=O)n(CC(=O)Nc3ccccc3CC)nc12`, the activity change, negative = inhibition in assay [1] is 11.9%; in assay [2], 0%; in assay [3] it was 11.7%; in assay [4], 9.63%; in assay [5] it was 9.28%.
With `COCCCN1C(=O)c2c(NC(C)=O)c3cc(OC)ccc3n2CC1(C)C(=O)NC1CCCCC1` (stereo not given), the activity change, negative = inhibition in assay [1] is -7.53%; in assay [2], 0.254%; in assay [3] it was -1.92%; in assay [4] it was 3.13%; in assay [5], -3.29%.
The like results for `O=S(=O)(NCCc1noc(-c2ccccc2)n1)c1ccc2c(c1)OCCO2` were, in that order, -7.91%, -4.66%, -2.83%, -12.6% and -8.61%.
The like results for `C#CCCCn1cc(-c2cccc3c2N[C@H](C)CC(=O)N3)cn1` were, in that order, -8.4%, -3.4%, 3.89%, -14.4% and -0.182%.
In the same order, the values of `Cc1cc(N2C(=O)c3cc4ccccc4n3CC2(C)C(=O)NC2CCCC2)ccc1Br` (stereo not given) are 1.7%, 0.665%, -3.2%, 0.987% and -0.841%.
Turning to `S=C(S)OC1CC2CC1C1CCCC21` (stereo not given), the activity change, negative = inhibition in assay [1] was 1.12%; in assay [2], 5.16%; in assay [3] it was 2.65%; in assay [4], -10.9%; in assay [5] it was 3.36%.
In the same order, the values of `O=c1c2ccccc2n2c(SCc3ccc(F)cc3)nnc2n1Cc1ccc(F)cc1` are 1.59%, -0.925%, 3.65%, -2.03% and -0.794%.
For `CCOC(=O)c1cc2n(n1)CC(C)(C(=O)NCc1ccccc1OC)N(CCc1ccc(Cl)cc1)C2=O` (stereo not given), the activity change, negative = inhibition in assay [1] was -6.82%; in assay [2], 1.25%; in assay [3], 0.747%; in assay [4], -11.2%; in assay [5] it was -2.69%.
The like results for `CC(C)CNC(=O)c1ccc2c(=O)n(C(C)C)c3nn(CC(=O)c4ccc(Cl)cc4)c(=O)n3c2c1` were, in that order, 6.27%, 1.15%, 10.3%, 3.41% and 9.71%.
The like results for `O=C(COc1ccc(-c2nnc3n2CCCC3)cc1)N1CCN(c2ccc(F)cc2)CC1` were, in that order, -0.417%, 0.171%, -0.728%, -3.67% and 3.52%.
In the same order, the values of `COc1ccc(CN2C(=O)c3cc4ccccc4n3CC2(C)C(=O)NCCCOC(C)C)cc1` (stereo not given) are 4.44%, 0%, 4.63%, 5.54% and 1.55%.
As for `Cc1nn(Cc2ccccc2)c(C)c1[C@@H]1C=C[C@@H](NC(=O)c2cccs2)C1`, the activity change, negative = inhibition in assay [1] was -2.96%; in assay [2], -1.5%; in assay [3], -20.5%; in assay [4], -25.1%; in assay [5], 8.38%.
In the same order, the values of `CCCn1c(=O)c2ccc(C(=O)NC(C)C)cc2n2c(SCC(=O)NC3CCCCC3)nnc12` are 0.125%, 0.367%, -0.804%, -1.2% and -1.68%.
In the same order, the values of `Cn1c(CN2CCC(O)CC2)nnc1C1CCCN(Cc2ccccn2)C1` (stereo not given) are -7.38%, -7.33%, -4.45%, -3.42% and -8.53%.
The like results for `COC(=O)c1ncn2c1C(=O)N(c1cccc(C)c1C)C(C)(C(=O)NCCCOC(C)C)C2` (stereo not given) were, in that order, 5.82%, 1.18%, 14.7%, 4.01% and 10.2%.
In the case of `CCCn1c(=O)c2ccc(Cl)cc2n2c(=O)n(CC(=O)c3ccc(C)cc3C)nc12`, the activity change, negative = inhibition in assay [1] was 0.681%; in assay [2], 0%; in assay [3], 6.9%; in assay [4], -2.37%; in assay [5], 1.32%.
In the same order, the values of `O=C1CN(Cc2ccc(F)cc2Cl)S(=O)(=O)c2ccccc2N1Cc1ccccc1` are 15.4%, 2.19%, 13.8%, 5.63% and 10.6%.
In the same order, the values of `O=c1cc(-c2ccccc2F)[nH]c2cc3c(cc12)OCO3` are 2.27%, 7.22%, 5.54%, -11% and -1.33%.
In the same order, the values of `CC(=O)O[C@@H]1C[C@@H](C)[C@](O)(CCC2=CC(=O)OC2)[C@@]2(C)CCCC(C)(C)C12` (stereo not given in full) are 1.82%, 2.19%, 3.11%, -13.3% and -0.392%.
In the case of `O=[N+]([O-])c1ccc(-c2nc(-c3ccc(F)cc3)c(-c3ccncc3)[nH]2)cc1`, the activity change, negative = inhibition in assay [1] is -11.7% and -11.9%; in assay [2] it was -7.13% and -6.92%; in assay [3], -8.09% and -7.66%; in assay [4], -38.2% and -22.6%; in assay [5] it was -9.97% and -12.6%.
On to `CCCC1c2cccn2CCN1C(=O)Nc1ccccc1` (stereo not given), for which the activity change, negative = inhibition in assay [1] is -7.25%; in assay [2] it was 2.46%; in assay [3] it was -24.6%; in assay [4], -6.21%; in assay [5], -4.04%.
The like results for `CC(=O)OC1C(CO)OC(O[C@H]2[C@H](OC(=O)[C@]34CCC(C)(C)C[C@H]3C3=CCC5[C@@]6(C)CC[C@H](O[C@@H]7O[C@H](C(=O)O)[C@@H](O)[C@H](O[C@@H]8OC[C@@H](O)[C@H](O)[C@H]8O)[C@H]7O[C@@H]7O[C@H](CO)[C@H](O)[C@H](O)[C@H]7O)[C@@](C)(C=O)C6CC[C@@]5(C)[C@]3(C)C[C@H]4O)O[C@H](C)[C@H](OC3OC(C)C(OC4OCC(O)C(O)C4O)C(O)C3O)[C@@H]2O)C(O)C1O` (stereo not given in full) were, in that order, 2.55%, 3.7%, 6.46%, -7.73% and 2.35%.

Source of the values: PubChem BioAssay AID1745853 (National Center for Advancing Translational Sciences (NCATS), 2022).
